# Measurements published in the supplement of paper PMC11417369.
# The list shows a part of the results.
# Tested on: PfHDP1 homeodomain (GST-tagged)
# Test: gcPBM binding intensity (ln(normalized median fluorescence intensity)); higher = stronger DNA binding
# Outline: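 An Agilent 4 × 180k array carrying primer-extended double-stranded 36-bp intergenic genomic probes and negative controls received GST-tagged P. falciparum DNA-binding domains expressed in E. coli, about 25 μg on average, for 1 h. The binding buffer contained 1× PBS, 1% milk, 0.2 mg/ml BSA, 0.5% salmon testes DNA and 0.03% Triton X-100. Binding intensity is the top Masliner-normalised natural-log median intensity across replicate spots of either probe orientation, read after Alexa488 anti-GST antibody staining and a 488 nm scan.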
row,Sequence,gcPBM binding intensity (ln)
1,AAAATGGGTTAGCACATACACACCAATATATTATAT [CACACA_site3082],6.69
2,ATAATTATATAAATATATATAATATATATATGAAAA [XGTACX_negctrl_site357],6.13
3,GTAACAAATAAAATAACACACATGTCGAAATGTATG [CACACA_site2971],6.41
4,AAGAAAAACATTACGTGTACCAAAAGGCCTGTCAAC [XGTACX_site267],6.74
5,AAAAAGAAATATTTATGTACATAATAATAATATTTT [XGTACX_site4693],6.14
6,AATATAGATACATATACACACACACCCATACATATA [CACACA_site9137],6.91
7,CAATTAAATATATGAACACACATGTGAACTTTCTAT [CACACA_site3977],6.36
8,TATTAAATTATATAGACACACATTATATATATATAT [CACACA_site4345],8.86
9,AAATACCTGATATATACACACTATGTTTTTCTTTTT [CACACA_site6680],6.65
10,ATATAGTTCGTTTATACACACATGATAAGATATTTA [CACACA_site1947],6.8
11,AAATCACTTTTTAAGTGTACTTGGTCTTTCTCATTT [XGTACX_site7221],5.84
12,TTTTTTACATCCATAAAACTTTTTCTCTTTTAAAAT [CACACA_negctrl_site1745],6.17
13,AGAGAGAAAGGTATAACATGCGATAAATTTTAGAAG [TGCATGCA_site37],6.58
14,CACATACATATATACACACACAAAATAATAAAATAA [CACACA_site2308],6.89
15,TTTTTAAAAATAACAGAAAAGAATTACAGATTTTTT [XGTACX_negctrl_site472],6.01
16,ATGTAAATTATTATTCTATTGTTATATACACAATAT [XGTACX_negctrl_site332],6.74
17,TTTTCTTGATTTTGTAGTACATTTTTACGATATTTT [XGTACX_site63],6.67
18,CTCATAATTTCTGAACGTACGTATTTCTCATTTTTA [XGTACX_site7296],6.54
19,CATATTCCAAGAATGTGTACATAATTTTTTTTTTTT [XGTACX_site4310],6.15
20,ATTTTTTTTTAATGCAAAAGGTGATGATCGGTCATA [CACACA_negctrl_site959],7.31
21,TTCTATAAGTATAAATGTACAAAAAAAACATCATTC [XGTACX_site5450],6.81
22,TGTATTAATATGGTAATACACACTAATATACTTTTG [CACACA_site1610],6.36

row,Sequence,gcPBM binding intensity (ln)
1,AGGTCTGTTTTATATTGTACATAAAAAGTGCACATG [XGTACX_site4529],10.1
2,AAAAAATTGAAGGAGTGTACATTTATACTTTATTTT [XGTACX_site8623],6.22
3,TGTAGAATTTCCTGAACATGCAAATAATTTTCCTTA [TGCATGCA_site881],6.19
4,AACATAATAAAAATGGATATAATTCAAAGTTTGTAA [TGCATGCA_negctrl_site529],5.96
5,TGTTATTCGACATATACACACAAATAACAATTTAAA [CACACA_site5076],6.56
6,GACATTTGTGAGCTTGAGCCGTCAAACCACTAAATA [CACACA_negctrl_site552],5.96
7,AAAATATGATATGAAAAATTTGTTATATATACATAA [CACACA_negctrl_site1529],6.15
8,TAATTATAAATTATAGTGCATAAAATTGTAGCATAA,9.63
9,ATATATATATATATATGTACATATCACTTTAAATAT [XGTACX_site3859],9.35
10,TTTTCTTAAAAAATCAAACACACATATATATATACA [CACACA_site2297],6.62
11,ATGATAGTATGTATGAGTACGAAAAAAAAAAATTAA [XGTACX_site32],6.45
12,TGTGGGAATAACCACACACACACACCCATATATATA [CACACA_site5876],6.79
13,ATATATATATATATTGTACACACATTTATGCATATA [CACACA_site9055],9.06
14,AAATGCAAATGATGATGTACATACAAAAATTAAATT [XGTACX_site5323],7.1
15,AAAATGTATATATAAACATGCACACGTGGTTGTATA [TGCATGCA_site847],8.08
16,TATCGTTATATAATATGTACATATAAAATTTAAATT [XGTACX_site1887],6.94
17,TCTTAAATTTCTTTATGTACATAATTAATATATTTA [XGTACX_site4456],6.46
18,TATATATTATGACCACCACACACCTATACGCATAAC [CACACA_site2447],6.95
19,AAAAAAAAAGTATTATGTACATAAAAATAAAAAAAT [XGTACX_site4166],6.79
20,GTTTATGTTAAACCATGTACTTAATATTTTATTCTT [XGTACX_site3761],6.29
21,TATGATTCATAATAGTGTACGTAAAAATTGACTAGA [XGTACX_site5376],7.52
22,ATTGTAGAATTTAATAGTACTCACGAATAAAATAAA [XGTACX_site6280],6.39

row,Sequence,gcPBM binding intensity (ln)
1,AAAAATATATAAAGAAAAAGAATATAATATAAAATA [GTGCAC_negctrl_site208],6.42
2,AAAAATAAATATACATGTACTTAAAATAATCGAATA [XGTACX_site8432],6.58
3,TATATTTTTATATTTTGTACATATAGTAAATATAAA [XGTACX_site4768],6.2
4,CTCAAACAATATTATATAATAAAGTACATATATATT [CACACA_negctrl_site446],6.75
5,GAACAGAAAAAGAATAGTACATATATATATATATAT [XGTACX_site3700],9.48
6,ACGTATCAAAAAATTTGTACATATATATATATATAT [XGTACX_site1024],9.41
7,ATTCAAAATAATAGAATTGTTAAAGTTGTAAATTGA [CACACA_negctrl_site727],6.16
8,TATAATATGAACAGTACACACAAAATAAATTCGTAT [CACACA_site3586],6.41
9,TATACATATATATATACACACATATATATATATACA [CACACA_site402],6.68
10,ACGCATGTAATTTATACACACATTCTTTTATATTTT [CACACA_site3708],6.58
11,AAATTATTATCGTTAATATGTATATATGTGCCAAGT [TGCATGCA_negctrl_site557],6.52
12,AAAACATACAGATATACACACATATATATATATATA [CACACA_site5091],9.42
13,ATATTTAAACGATGGTGTACATATATTACAAGTTGT [XGTACX_site1743],7.03
14,ATATAGATCTACACTGCACACATTTTTAACACTGCT [CACACA_site1882],8.17
15,GCATTTTAATAATTATGTACATATATTATTCCTGGT [XGTACX_site3664],7.07
16,TTCCATCAAAAAATGGGTACACATTATAGAAATATT [XGTACX_site8482],6.39
17,CATATACGCAAACACACACACATATATATATATATA [CACACA_site501],9.26
18,AGGTATATATATTTATGTACTTAAAATGAGAAAATA [XGTACX_site8337],6.47
19,TATAATAATATTTATTGTACAATTAGGTTAATTCAT [XGTACX_site1986],6.67
20,TTGAAATTAAATGACATACACACTATATTATATATT [CACACA_site3135],6.24
21,AAAAATAAAGTAAAAGCATGCTAGTATATGGAAAAT [TGCATGCA_site486],7.36
22,AATATACGAAATTGTGCACACATATATTTATGTATG [CACACA_site1510],10.8

row,Sequence,gcPBM binding intensity (ln)
1,TAAAATGAAGGAATATGTACATAAATAAACATATAT [XGTACX_site6266],6.31
2,CGATATAAAGATATTAGTACATATGCATGCTTGTCT [XGTACX_site8629],6.2
3,CATATATGATATATTAGTACATATATATATATATAT [XGTACX_site1574],9.32
4,AATCTAATGTAATGCATACACACAACTATCCATCAA [CACACA_site535],6.65
5,TTGTTTTTTTTTGGCTGTACGTTCATAAATTTTTTT [XGTACX_site4165],6.73
6,TTTTCATAAAATCATTGTACATTTATCGTATATTAA [XGTACX_site3855],6.26
7,AAAATATCTTATATATGTACATATTTATATTTATAT [XGTACX_site6027],6.4
8,ATATTGTAAGTAAACACACACACATATATATGTATA [CACACA_site8124],6.76
9,TATTTGTTGTGAGTCACACATATATATATATATATA [CACACA_site4240],9.51
10,AAAAAAAAAAAAAAAACACACAGAACAATATATAAA [CACACA_site4698],6.61
11,AAGCTATATATAGGCAGTACTTTGTAAGTGTAGATA [XGTACX_site8365],6.9
12,TTTTTTATAAAATTTTTTTTTTAAAATATTAAAACT [XGTACX_negctrl_site240],6.07
13,TTTCTAATTCTTAGTGGTACACAGTTCTGCTGATAT [XGTACX_site2391],6.09
14,ATATGTCACTTGTATACACACATATAGATTTCAATC [CACACA_site7519],7.47
15,TATATGCATATACATACACACATAACACATACGTTT [CACACA_site3832],7.14
16,GGAATGGTACATGATACACACACGCACATATATATA [CACACA_site5825],7.24
17,TATATTAAACAATATACACACATTAATGTATACATA [CACACA_site2755],6.69
18,GTTAAAATTGGGGACGCATGTTCCTTTCCTTTTTTT [TGCATGCA_site1002],5.83
19,TTATAAATGTAACGATGTACTTTTAAAAGTTTCCTT [XGTACX_site109],6.22
20,ACAATTTACACTTAAACACACAAAAAAAAATTATAT [CACACA_site2065],6.83
21,ACATATATATTCATATGTACATATACATACATACAT [XGTACX_site4563],7.58
22,GCATCGATCAAACATACACACATGGTTAATAAAAAT [CACACA_site8651],6.83
